# Measured values from PubChem BioAssay (NCATS).
# Values joined by “and” are separate entries in the source; they are usually repeats but may differ in a detail not shown here. Identical values can stand only once. Some of the results follow. Further columns of the screen follow, without active or inactive calls. Most of these compounds were active or inconclusive in the main read-out, so they are no random draw. Potencies come from curve fits of mixed quality, noted in brackets.
# Test: qHTS Assay for Lipid Storage Modulators (AID 1519)
# Conditions: Drosophila S3 cells, BODIPY lipid droplet/cell ratio, laser cytometry; measured here: lipid (BODIPY) channel AC50; cells loaded with oleic acid
# In short: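 Cells seeded at 5,000 per well were treated with compounds over a concentration series and loaded with oleic acid (400 uM, as added). Lipid droplet fluorescence (488 nm excitation, 500-530 nm channel) was read by laser-scanning cytometry and normalized to 20 uM Triacsin C.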
# Tags tell the direction and shape of the fitted curve.
row,Compound,AC50
1,CCNc1ncc2nc(-c3cn(C)c4ccccc34)c(=O)n(Cc3ccc(F)cc3)c2n1,"0.891 µM [rising, full curve, poor fit]"
2,N#Cc1cccc(-c2cncnc2NCCc2cnc[nH]2)c1,"12.6 µM [rising, partial curve]"
3,COc1cccc(-c2nc(N(C)C)c3ccccc3n2)c1,"2 µM [rising, full curve]"
4,COc1ccc2[nH]cc(CCNc3cc(-c4ccccc4Cl)ncn3)c2c1,"1.41 µM [rising, full curve, poor fit]"
5,COc1ccc(-c2nc(C(=O)N3CCN(C)CC3)sc2-c2ccc(OC)cc2)cc1,"28.2 µM [rising, partial curve]"
6,CN(Cc1ccco1)c1ncncc1-c1ccc2c(c1)OCO2,"0.316 µM [rising, full curve]"
7,O=c1c(-c2cc(F)cc(F)c2)nc2cnc(N3CCNCC3)nc2n1Cc1ccc(F)cc1,"4.47 µM [rising, single point]"
8,CN1C(=O)CCC1c1cccnc1 (stereo not given),"35.5 µM [rising, partial curve, poor fit] and 7.08 µM [falling, full curve]"
9,CN(C)c1ccc(-c2nc(-n3ccnc3)c3ccccc3n2)cc1,"0.0251 µM [rising, full curve]"
10,CCOc1ccc(/C=C/C(=O)c2cccs2)cc1,"14.1 µM [rising, partial curve, poor fit]"
11,CC(=O)c1ccc[nH]1,"6.31 µM [rising, single point]"
12,COCCn1c(=O)c(-c2cc(F)cc(F)c2)nc2cncnc21,"12.6 µM [rising, partial curve]"
13,C[N+](C)(C)CCOC(=O)CCC(=O)OCC[N+](C)(C)C,"8.91 µM [falling, full curve, poor fit]"
14,COc1ccc(CNc2ncncc2-c2ccccc2C)c(OC)c1,"5.01 µM [rising, partial curve]"
15,Cn1cnc2c(NCc3ccccc3)nc(NCCO)nc21,"2.24 µM [rising, full curve]"
16,O=S(=O)(c1ccccc1)N1CCC2(CCN(c3ncccn3)CC2)CC1,"0.00794 µM [rising, full curve, poor fit]"
17,COc1ccc(Oc2ncc3ncc(=O)n(CCc4ccccc4)c3n2)cc1,"0.447 µM [rising, full curve, poor fit]"
18,c1ccc2c(N3CCOCC3)nc(-c3ccoc3)nc2c1,"2.82 µM [rising, full curve]"
19,COc1ccc(-n2c(=O)c(-c3ccc(F)cc3)nc3cnc(OC)nc32)cc1,"0.00562 µM [rising, full curve, poor fit]"
20,CN(C)C1C(=O)C(C(N)=O)=C(O)[C@@]2(O)C(=O)C3=C(O)c4c(O)ccc(Cl)c4[C@@H](O)C3C[C@@H]12 (stereo not given in full),"11.2 µM [falling, partial curve, poor fit]"

row,Compound,AC50
1,CCn1ccnc1C[C@@H]1COc2ccccc2O1,"35.5 µM [rising, single point]"
2,Cc1cc(NC(=O)C2=C(O)c3ccccc3S(=O)(=O)N2C)no1,"35.5 µM [rising, single point]"
3,COc1cccc(Cn2c(=O)c(CCc3ccccc3)nc3cnc(N4CCOCC4)nc32)c1,"3.55 µM [rising, full curve]"
4,O=C(Cc1ccc(Cl)cc1)c1c(O)cc(O)cc1O,"3.98 µM [rising, full curve, poor fit]"
5,CC(C)=CCC/C(C)=C\COc1c2ccoc2cc2oc(=O)ccc12,"1.78 µM [rising, full curve]"
6,COc1ccccc1CNc1ccnc(-c2cccc(NS(C)(=O)=O)c2)n1,"0.501 µM [rising, full curve]"
7,COc1ccc(C2CNC(=O)C2)cc1OC1CCCC1 (stereo not given),"39.8 µM [rising, partial curve, poor fit]"
8,O=c1cc(-c2ccccc2O)oc2ccc3ccccc3c12,"12.6 µM [rising, partial curve]"
9,COc1ccc(-n2c(=O)c(C)nc3cnc(N4CCOCC4)nc32)cc1,"2.24 µM [rising, full curve]"
10,COc1ccc(-n2c(=O)c(C)nc3cnc(Nc4cccc(OC)c4)nc32)cc1,"2.24 µM [rising, partial curve, poor fit]"
11,O=C(O)COc1cccc(-c2ocnc2-c2nc(-c3ccccc3)c(-c3ccccc3)o2)c1,"17.8 µM [rising, partial curve]"
12,C#CCCCCCCCCCCCCCCCC(=O)O,"28.2 µM [rising, partial curve]"
13,COc1cccc(Cn2c(=O)c(-c3cccc(C#N)c3)nc3cnc(Nc4ccccc4)nc32)c1,"0.158 µM [rising, full curve, poor fit]"
14,CC(C)=CCc1c2c(c3occ(-c4ccc(O)cc4)c(=O)c3c1O)C=CC(C)(C)O2,"28.2 µM [falling, partial curve]"
15,COc1ccc(Oc2ncc3ncc(=O)n(CCC#N)c3n2)cc1,"0.0501 µM [rising, full curve]"
16,Fc1ccc(Nc2ccnc(-c3ccccc3C(F)(F)F)n2)cc1,"1.41 µM [rising, full curve, poor fit]"
17,COc1ccccc1CNc1cc(-c2ccccc2OC)ncn1,"1.26 µM [rising, full curve]"
18,Cc1nc2cncnc2n(Cc2ccccc2Cl)c1=O,"1.58 µM [rising, full curve, poor fit]"
19,CN1CCN(c2nc(-c3cccnc3)nc3ccccc23)CC1,"2.24 µM [rising, partial curve, poor fit]"
20,O=S(=O)(c1ccccc1)N1CCC[C@@]2(CCN(Cc3ccccc3)C2)C1,"0.0316 µM [rising, full curve, poor fit]"
